# Reference: PubChem BioAssay AID1347073 (National Center for Advancing Translational Sciences (NCATS), 2019)
# The campaign covered roughly 45,000 compounds. About 200 (0.44%) were called active. Not shown: some 7% with an inconclusive outcome. The call rests on the fitted dose curve; in most records, active means well fitted activation curve with a large enough effect; inconclusive means small, poorly fitted or top-dose-only effect; inactive means no such curve, though single readings can be large or run the other way. Some of the results follow.
# Assay: qHTS of TDP-43 Inhibitors: NCGC Sytravon Library Screen; further: 0% is about no effect; nearly all actives have a fitted effect of over 55% in size
# Details: yeast TDP-43 toxicity rescue, BacTiter-Glo growth, 24 h; series mostly up to 46.1 µM; growth rescue (activation): at the top concentration
# How it was run: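 TDP-43-expressing yeast, pregrown in raffinose, seeded at OD600 0.02 in galactose medium with compound for 24 hr at 30 deg C. Growth read by BacTiter-Glo luminescence, so rescue of toxicity appears as activation.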
row,SMILES,growth rescue (activation)
1,Nc1c(Br)c(=O)[nH]c(=O)n1-c1ccc(F)cc1,inactive: 5.88%
2,COc1cc(OC)cc(C(=O)OCc2ccc([N+](=O)[O-])cc2)c1,inactive: -5.25%
3,Cc1ccc(NC(=O)c2cccc3cccnc23)cc1,inactive: 9.76%
4,COc1cc(C(=O)CSc2nncn2C)cc(OC)c1OC,inactive: 13.5%
5,CC(CCc1ccccc1)NC(=O)COC(=O)c1cc(NS(=O)(=O)c2ccc(Cl)c([N+](=O)[O-])c2)ccc1O (centres undefined),inactive: 14.9%
6,COc1ccc(CCNC(=O)COC(=O)c2ccc(OC)cc2OC)cc1,inactive: 14.8%
7,CCN(CC)CCNC(=O)c1ccc(NC(=O)Cc2cccc3ccccc23)cc1,inactive: -16.6%
8,CCCCCC(=O)c1c(C)[nH]c(C(=O)OCC)c1C,inactive: 18.6%
9,O=C(COC(=O)COc1cccc(Br)c1)NCc1ccc2c(c1)OCO2,inactive: 10.7%
10,COCCNC(=O)NC(=O)CN1CCN(C(c2ccccc2)c2ccccc2)CC1,inactive: -5.85%
11,COc1ccc(OCC(=O)Nc2ccccc2C(=O)NC(C)C)cc1,inactive: 8.08%
12,COc1ccc2nc(SCC(=O)NCc3ccc4c(c3)OCO4)[nH]c2c1,inactive: 0.669%
13,O=C(O)COc1ccccc1/C=N/NC(=O)COc1ccc(-c2ccccc2)cc1,inactive: 4.86%
14,O=C(COC(=O)C1=COCCO1)NC1CCCCCCC1,inactive: 13.8%
15,O=C(N/N=C/c1ccc(OC(=O)c2ccco2)cc1)c1ccccn1,inactive: 1.32%
16,O=C(COc1ncnc2c(Cl)cc(Cl)cc12)Nc1cc([N+](=O)[O-])ccc1Cl,inactive: 18.3%
17,FC(F)(F)c1cc(Cl)c2nnc(-c3cccnc3)n2c1,inactive: -6.54%
18,COc1ccccc1C(=O)NC(=S)Nc1ccc(NC(=O)c2cccs2)cc1,inactive: 20.8%
19,COC(=O)N/N=C/c1ccccc1OCCOc1ccc(OC)cc1,inactive: 14.3%
20,Cc1c(C(=O)N2CCCC(C)C2)sc2ncnc(N3CCCCC3C)c12 (centres undefined),inactive: 23.7%
21,O=[N+]([O-])c1ccc(N/N=C/c2c[nH]c3ccccc23)cc1,inactive: 31%
22,O=C(/C=C/c1cccc(F)c1)Nc1cc(S(=O)(=O)N2CCOCC2)ccc1N1CCCC1,inactive: 0.965%
23,COc1ccc(/C=N\NC(=O)COc2ccccc2)c(C(=O)O)c1OC,inactive: -4.94%

row,SMILES,growth rescue (activation)
1,COCc1ccc(C(=O)NC(C)c2cnn(-c3ccccc3C)c2C)o1 (centres undefined),inactive: -9.72%
2,CS(=O)(=O)N1CCN(c2ccc(NC(=S)NC(=O)c3cccs3)cc2)CC1,inactive: -1.81%
3,COc1ccc(CNC(=O)c2cccc3c(-c4cccc(C(N)=O)c4)coc23)cc1OC,inactive: 2.82%
4,CC(C)(C)NC(=O)NC(=O)COC(=O)c1cccc(F)c1,inactive: 3.26%
5,CN(C)S(=O)(=O)c1cccc(NC(=S)N2CCCCC2CO)c1 (centres undefined),inactive: 12.1%
6,O=C(CCN1C(=O)C2CC=CCC2C1=O)Nc1cccc(Cl)c1 (centres undefined),inactive: 16.1%
7,c1ccc(C2=NN(c3ccccc3)C(c3ccco3)C2)cc1 (centres undefined),inactive: 0.98%
8,Cc1ccc(S(=O)(=O)N2CCN(c3ccccc3)CC2)cc1C(N)=O,inactive: 3.02%
9,COc1ccccc1CCC(=O)OCC(=O)Nc1ccc(C(N)=O)cc1,inactive: 17%
10,O=C(CCSCCc1ccccn1)Nc1ccc(Cc2ccncc2)cc1,inactive: 6.5%
11,COC(=O)NC1CCC(NC(=O)OC)CC1 (centres undefined),inactive: 4.56%
12,CCOC(=O)CC1CCCCN1Cc1nc(-c2ccc(F)c(OC)c2)oc1C (centres undefined),inactive: 3.86%
13,O=C(CS(=O)(=O)c1ccccc1)Nc1nccs1,inactive: -0.221%
14,O=C(NN=C1CCCC1)c1cc(-c2ccc(F)cc2)nc2ccccc12,inactive: 3.63%
15,CN(C)C(=O)CN1C(=O)NC(c2ccccc2)(c2ccccc2)C1=O,inactive: -2.36%
16,S=C(c1ccc(Cl)cc1)N1CCN(Cc2ccccc2)CC1,inactive: 2.56%
17,Cc1nc(SCC(=O)NC2CC2)c2c(C)c(C)sc2n1,inactive: 12.2%
18,CCN(c1ccccc1)S(=O)(=O)c1cc(NC(=O)COC(=O)C2CC2)ccc1Cl,inactive: 5.66%
19,COc1cc2cc(C)c3nnc(SCC(=O)Nc4cc(C)on4)n3c2cc1OC,inactive: 10.6%
20,CC(C)c1nc(SCC(=O)c2c[nH]c3ccccc23)n[nH]1,inactive: 27.7%
21,O=c1[nH]c(Cc2ccc(F)cc2)nc2scc(-c3ccc(F)cc3)c12,inactive: 19.8%
22,O=C(c1coc2ccc(O)c(CN3CCOCC3)c12)C1CC1,inactive: 15.6%
23,C=CCn1c(O)c(N=NC(=O)CNC(=O)/C=C/c2ccc(OC)cc2)c2ccccc21,inactive: -7.75%

row,SMILES,growth rescue (activation)
1,Cc1nc2nc(C)c(NS(=O)(=O)c3cccs3)c(=O)n2[nH]1,inactive: 14.1%
2,COc1ccc2[nH]c3nc(SCC(=O)NC4CC4)nnc3c2c1,inactive: -23.5%
3,O=C(CN1C(=O)NC2(CCCCC2)C1=O)N1CCN(S(=O)(=O)c2ccccc2)CC1,inactive: 10%
4,Cc1ccc(C)n1-c1ccncc1,inactive: 15.6%
5,Cc1cc(Oc2nc3ccccn3c(=O)c2/C=C(\C#N)C(=O)NC2CCS(=O)(=O)C2)ccc1Cl (centres undefined),inactive: -1.3%
6,CN(C(=O)CSc1nc2ccccc2c(=O)n1-c1ccccc1F)C1CCS(=O)(=O)C1 (centres undefined),inactive: -9.97%
7,O=C(C1CCCN1S(=O)(=O)c1ccc(Cl)cc1)N1CCCCC1 (centres undefined),inactive: 0.792%
8,CCOc1ccc(NC(=O)NC(C)c2c(-n3cccc3)sc(C)c2C)cc1 (centres undefined),inactive: 13.5%
9,CCOC(=O)CSc1nc2sc3c(c2c(=O)n1Cc1ccccc1)CC(C)CC3 (centres undefined),inactive: -0.873%
10,Cn1ccnc1C(O)(c1ccccc1)c1ccccc1,inactive: 0.802%
11,O=S1(=O)CCC(NC(=S)N2CCCCCC2)C1 (centres undefined),inactive: 6.81%
12,CCC/C=N/NC(=O)c1[nH]c2c([N+](=O)[O-])cccc2c1C,inactive: 13.1%
13,Cc1ccc(C)c(NC(=O)c2cc(-c3ccccc3O)n[nH]2)c1,inactive: 14.4%
14,O=C(Cc1ccccc1F)Nc1ccc(SC(F)F)cc1,inactive: 7.81%
15,Cc1c(C(=O)NCc2ccco2)oc2ccccc12,inactive: 10.1%
16,CCOC(=O)C1=C(c2ccccc2)NC(=O)NC1c1cc(Cl)c(O)c(OC)c1 (centres undefined),inactive: 9.77%
17,CC(=O)c1ccc(N2CCN(C(=S)Nc3ccc(Oc4ccccc4)cc3)CC2)cc1,inactive: -1.19%
18,O=C(Cn1nc(C(=O)O)c2ccccc2c1=O)Nc1ccc(F)cc1,inactive: 12.6%
19,COc1ccccc1N1CCN(C(=O)COc2ccc(S(=O)(=O)NC(C)C)cc2)CC1,inactive: 4.78%
20,Cc1c(N2C(=O)c3ccccc3C2=O)c(=O)n(-c2ccccc2)n1C,inactive: -5.39%
21,COc1ccc(CN2CCC(C(=O)NC(c3ccc4c(c3)OCO4)c3ccccn3)CC2)cc1 (centres undefined),inactive: 3.58%
22,O=C(Nc1ccc2oc(=O)ccc2c1)c1cc([N+](=O)[O-])ccc1N1CCOCC1,inactive: -3.26%
23,Cc1cc(O)c(C2=Nc3ccccc3SC(c3ccc(Cl)cc3)C2)c(=O)o1 (centres undefined),inactive: 8.7%
